Our source for the cAMP reporter score and surface expression score values is the GPR68 mutational scans of Howard et al. (2025).

B1: GPR68, Q15743 (parent)
chain: MGNITADNSSMSCTIDHTIHQTLAPVVYVTVLVVGFPANCLSLYFGYLQIKARNELGVYLCNLTVADLFYICSLPFWLQYVLQHDNWSHGDLSCQVCGILLYENIYISVGFLCCISVDRYLAVAHPFRFHQFRTLKAAVGVSVVIWAKELLTSIYFLMHEEVIEDENQHRVCFEHYPIQAWQRAINYYRFLVGFLFPICLLLASYQGILRAVRRSHGTQKSRKDQIQRLVLSTVVIFLACFLPYHVLLLVRSVWEASCDFAKGVFNAYHFSLLLTSFNCVADPVLYCFVSETTHRDLARLRGACLAFLTCSRTGRAREAYPLGAPEASGKSGAQGEEPELLTKLHPAFQTPNSPGSGGFPTGRLA

The variants in series [1] derive from B1. Put plainly: cAMP reporter score (Enrich2 score, wild type = 0); higher = more signal; HEK293T, FACS bins.
Variants of B1 are the subject of series [2]. Kind of series: surface expression score (Enrich2 score, wild type = 0); higher = more signal; HEK293T, FACS bins.

The least precise scores are not listed. The source holds two more conditions with little spread; they are left out. Read del as a deletion of the residues named and ins as an insertion between two positions. For some of these results: The data file names ogerin without a concentration.

In the case of P243H, the cAMP reporter score was -2.14 in series [1] (pH 5.5); -2.07 in series [1] (pH 6); -1.64 in series [1] (pH 6, modulator: ogerin); -1.13 in series [1] (pH 6.5, modulator: ogerin). Further, the surface expression score in series [2] is -2.74.

Take F241S: the cAMP reporter score was 0.427 in series [1] (pH 5.5) and -0.259 in series [1] (pH 6, modulator: ogerin). Besides, the surface expression score in series [2] is -1.11.

As to F241I, the cAMP reporter score is 0.778 in series [1] (pH 5.5); -0.034 in series [1] (pH 6); -0.134 in series [1] (pH 6, modulator: ogerin); 0.203 in series [1] (pH 6.5, modulator: ogerin). Moreover, in series [2], the surface expression score is -1.62.

With F241M, the cAMP reporter score in series [1] (pH 5.5) was 0.491; in series [1] (pH 6, modulator: ogerin), -0.073. Further, the surface expression score in series [2] was -0.559.

Consider F241P, for which the cAMP reporter score was -0.73 in series [1] (pH 5.5); -0.599 in series [1] (pH 6); -0.775 in series [1] (pH 6.5, modulator: ogerin). For the same variant, the surface expression score in series [2] is -1.6.

F241Y: the cAMP reporter score in series [1] (pH 5.5) is -0.641; in series [1] (pH 6) it was -0.325; in series [1] (pH 6, modulator: ogerin), -0.761; in series [1] (pH 6.5, modulator: ogerin), -0.996. Further, in series [2], the surface expression score is -0.133.

With F241C, the cAMP reporter score was -0.711 in series [1] (pH 5.5); -1.16 in series [1] (pH 6); -1.43 in series [1] (pH 6, modulator: ogerin); -0.611 in series [1] (pH 6.5, modulator: ogerin). Also, the surface expression score in series [2] is -2.81.

Take F241V: the cAMP reporter score was -0.314 in series [1] (pH 5.5); 2.06 in series [1] (pH 6); -0.423 in series [1] (pH 6, modulator: ogerin); -0.894 in series [1] (pH 6.5, modulator: ogerin). In series [2], the surface expression score is -2.79.

With F241Q, the cAMP reporter score is -0.256 in series [1] (pH 5.5); 0.273 in series [1] (pH 6); -0.165 in series [1] (pH 6, modulator: ogerin). Also, the surface expression score in series [2] was -1.04.

With F241E, the cAMP reporter score in series [1] (pH 5.5) was -0.203; in series [1] (pH 6), -0.9; in series [1] (pH 6, modulator: ogerin), 0.14; in series [1] (pH 6.5, modulator: ogerin), -0.588. Moreover, in series [2], the surface expression score is -1.52.

For the variant F241H, the cAMP reporter score was -0.018 in series [1] (pH 5.5); 2.15 in series [1] (pH 6); 0.796 in series [1] (pH 6, modulator: ogerin); 2.28 in series [1] (pH 6.5, modulator: ogerin). Besides, the surface expression score in series [2] is -2.17.

For F241W, the cAMP reporter score in series [1] (pH 5.5) was 1.11; in series [1] (pH 6, modulator: ogerin), -1.3. Further, the surface expression score in series [2] is -2.4.

F241T: the cAMP reporter score in series [1] (pH 5.5) was -0.057; in series [1] (pH 6), -0.963; in series [1] (pH 6, modulator: ogerin), -1.92; in series [1] (pH 6.5, modulator: ogerin), -2.56.

Take F241G: the cAMP reporter score in series [1] (pH 5.5) was -1.04; in series [1] (pH 6), -0.626; in series [1] (pH 6, modulator: ogerin) it was -1.4; in series [1] (pH 6.5, modulator: ogerin), -0.354. In addition, the surface expression score in series [2] is -2.13.

With F241A, the cAMP reporter score in series [1] (pH 5.5) is -0.281; in series [1] (pH 6), -0.755; in series [1] (pH 6, modulator: ogerin), -0.165; in series [1] (pH 6.5, modulator: ogerin) it was -0.767. Further, in series [2], the surface expression score was -1.95.

As for F241K, the cAMP reporter score in series [1] (pH 5.5) was -0.404; in series [1] (pH 6.5, modulator: ogerin), -0.425. In addition, in series [2], the surface expression score is -0.43.

Turning to F241L, the cAMP reporter score in series [1] (pH 5.5) is -0.421; in series [1] (pH 6), -0.331; in series [1] (pH 6, modulator: ogerin), -0.735; in series [1] (pH 6.5, modulator: ogerin) it was -0.117. Moreover, the surface expression score in series [2] is -1.06.

F241D: the cAMP reporter score in series [1] (pH 5.5) was -0.668; in series [1] (pH 6), -1.36; in series [1] (pH 6, modulator: ogerin) it was -1.59; in series [1] (pH 6.5, modulator: ogerin), -0.706. Also, the surface expression score in series [2] is -2.17.

For the variant L249_V250insGSG, the cAMP reporter score in series [1] (pH 5.5) is -1.67; in series [1] (pH 6) it was -1.16; in series [1] (pH 6, modulator: ogerin), -0.727; in series [1] (pH 6.5, modulator: ogerin) it was -0.887. In addition, in series [2], the surface expression score was -2.72.

On to L242W, for which the cAMP reporter score in series [1] (pH 5.5) was -0.27; in series [1] (pH 6) it was -1.29; in series [1] (pH 6, modulator: ogerin) it was -0.653; in series [1] (pH 6.5, modulator: ogerin), -0.579. For the same variant, in series [2], the surface expression score is -2.27.

Regarding L242Y, the cAMP reporter score in series [1] (pH 5.5) is -1.52; in series [1] (pH 6), -0.998; in series [1] (pH 6, modulator: ogerin), -1.51; in series [1] (pH 6.5, modulator: ogerin), -1.21. For the same variant, the surface expression score in series [2] is -2.63.

Take L242Q: the cAMP reporter score is -1.67 in series [1] (pH 5.5); -1.04 in series [1] (pH 6); -1.03 in series [1] (pH 6, modulator: ogerin); -1.35 in series [1] (pH 6.5, modulator: ogerin). In addition, the surface expression score in series [2] is -1.91.

L242S: the cAMP reporter score is 0.373 in series [1] (pH 5.5); -0.511 in series [1] (pH 6); -0.181 in series [1] (pH 6, modulator: ogerin); -0.418 in series [1] (pH 6.5, modulator: ogerin). Further, the surface expression score in series [2] came out at 0.403.

For the variant L242E, the cAMP reporter score in series [1] (pH 5.5) was -1.66; in series [1] (pH 6) it was -0.433; in series [1] (pH 6, modulator: ogerin) it was -1.42; in series [1] (pH 6.5, modulator: ogerin) it was -1.29. For the same variant, the surface expression score in series [2] is -2.24.

As for L242K, the cAMP reporter score in series [1] (pH 5.5) was -1.43; in series [1] (pH 6), 0.171; in series [1] (pH 6, modulator: ogerin) it was -0.634. In addition, the surface expression score in series [2] was -4.38.

On to L242I, for which the cAMP reporter score in series [1] (pH 5.5) is 1.05; in series [1] (pH 6) it was 0.573; in series [1] (pH 6, modulator: ogerin), -0.126; in series [1] (pH 6.5, modulator: ogerin), 1.31. Besides, the surface expression score in series [2] is -1.93.

Turning to L242F, the cAMP reporter score was -0.352 in series [1] (pH 5.5); 0.219 in series [1] (pH 6); 0.013 in series [1] (pH 6, modulator: ogerin); -0.125 in series [1] (pH 6.5, modulator: ogerin). In addition, in series [2], the surface expression score was -0.77.

Consider L242T, for which the cAMP reporter score in series [1] (pH 5.5) was 0.422; in series [1] (pH 6), -0.058; in series [1] (pH 6, modulator: ogerin), 0.994; in series [1] (pH 6.5, modulator: ogerin) it was 0.722. Also, the surface expression score in series [2] turned out to be 0.207.

Consider L242N, for which the cAMP reporter score in series [1] (pH 5.5) is -1.24; in series [1] (pH 6), -1.32; in series [1] (pH 6, modulator: ogerin), -2.01; in series [1] (pH 6.5, modulator: ogerin), -1.23. For the same variant, in series [2], the surface expression score was -1.96.

L242D: the cAMP reporter score in series [1] (pH 5.5) was -2.14; in series [1] (pH 6, modulator: ogerin) it was -2.29; in series [1] (pH 6.5, modulator: ogerin), -0.428.

On to L242C, for which the cAMP reporter score was 0.766 in series [1] (pH 5.5); -0.702 in series [1] (pH 6); 0.257 in series [1] (pH 6, modulator: ogerin); 0.158 in series [1] (pH 6.5, modulator: ogerin). The surface expression score in series [2] worked out at 0.288.

Turning to L242V, the cAMP reporter score stood at 0.597 in series [1] (pH 5.5); 0.242 in series [1] (pH 6); 1.02 in series [1] (pH 6, modulator: ogerin); 0.777 in series [1] (pH 6.5, modulator: ogerin). For the same variant, the surface expression score in series [2] is -0.273.

As to L242A, the cAMP reporter score came to 0.516 in series [1] (pH 5.5); 0.455 in series [1] (pH 6); 0.605 in series [1] (pH 6, modulator: ogerin); 0.784 in series [1] (pH 6.5, modulator: ogerin). Besides, the surface expression score in series [2] is 1.23.
